The values below come from ChEMBL document CHEMBL4888484, “Replenishing the malaria drug discovery pipeline: Screening and hit evaluation of the MMV Hit Generation Library 1 (HGL1) against asexual blood stage Plasmodium falciparum ,using a nano luciferase reporter read-out” (2022).

Screen size: about 150,000 compounds; about 540 (0.36%) showed an effect of 50% or more. The list shows a part of the results.

Broadly, the % Inhibition is the relative decrease from the control value, in per cent.

The subject of this test is Plasmodium falciparum. Kind of test: Primary screen in NF54 nanoGlo assay, in single point, at 2uM, 72h; a lower Z score goes with more inhibition. It counts as functional, Erythrocyte. Conditions: timepoint 72 hour.
With `COC[C@@H](O)CNCc1cc2cc(C)c(C)cc2o1`, the “% Inhibition” value is given as -14% and the Z score was 1.22.

Consider `COc1ccc([C@@H](NC(=O)CN2C(=O)N(C)C3(CCCCC3)C2=O)c2nccn2C)cc1`, for which the “% Inhibition” value is given as -2% and the Z score turned out to be 0.26.

For `COc1ccc(CCNC(=O)Cn2c(=O)n(Cc3ccccc3)c(=O)c3cc(Cl)ccc32)cc1OC`, the “% Inhibition” value is 2% and the Z score is given as -0.27.

For `CN(Cc1cc(C2CC2)on1)Cc1cccnc1N`, the “% Inhibition” value is listed as -7% and the Z score came to 1.32.

Regarding `C[C@@](O)(CNS(=O)(=O)c1cccnc1)Cc1ccco1`, the “% Inhibition” value was -17% and the Z score worked out at 2.43.

As for `CC(C)OC1CN(C(=O)[C@H]2CCC(=O)N(c3cnn(C)c3)C2)C1`, the “% Inhibition” value was 1% and the Z score is listed as -0.22.

With `CCN(CCNS(=O)(=O)c1ccccc1)CC(=O)Nc1ccc(NC(C)=O)cc1`, the “% Inhibition” value was 30% and the Z score is on record as -2.69.

Turning to `COc1cccc(NC(=O)Nc2ccnc(OC)n2)c1`, the “% Inhibition” value is on record as -5% and the Z score worked out at 0.82.

Consider `Cc1cc2n(CCNS(=O)(=O)N(C)C)ccn2n1`, for which the “% Inhibition” value is given as -3% and the Z score was 0.62.

`O=C(Cn1nc(C(=O)N2CCCC2)ccc1=O)Nc1ccccc1F`: the “% Inhibition” value is -10% and the Z score is 2.06.

On to `Cc1noc(C)c1S(=O)(=O)N(C)Cc1ccc(C2CC2C)o1` (stereo not given), for which the “% Inhibition” value is reported as 2% and the Z score was -0.21.

Turning to `CCC(NC(=O)NC(C)c1cn(C)nc1C)c1nccs1` (stereo not given), the “% Inhibition” value was -10% and the Z score worked out at 1.85.

Consider `O=S1(=O)CC[C@H](CNS(=O)(=O)c2ccc(Cl)s2)C1`, for which the “% Inhibition” value is 5% and the Z score is reported as -0.72.

Consider `Cc1ccc(-c2cc(C(F)(F)F)on2)cc1S(=O)(=O)N1CCCC[C@@H]1C`, for which the “% Inhibition” value is on record as -4% and the Z score is reported as 0.61.

Consider `Cc1nccn1[C@@H](C)C(=O)NCCn1nnc2ccccc21`, for which the “% Inhibition” value is listed as -23% and the Z score is on record as 2.94.

As to `N#Cc1ccc(C(=O)N2CCC3(CCC(=O)N(CCc4ccncc4)C3)CC2)cc1`, the “% Inhibition” value was -15% and the Z score is given as 1.39.

Regarding `COCCN1CC2(CCC1=O)CCN(CCCC(=O)c1ccccc1)CC2`, the “% Inhibition” value is given as -7% and the Z score is on record as 0.86.

Turning to `CC(=O)c1ccc(CN2CCC3(CC2)N=C(c2ccccn2)NC3=O)cc1`, the “% Inhibition” value came out at 2% and the Z score was -0.25.

As for `CCC[C@H]1CN(C(=O)c2csc(C)n2)C[C@@H]1N(C)C`, the “% Inhibition” value is listed as -8% and the Z score turned out to be 0.8.

Turning to `Cc1nsc(NC(=O)N2CCC(CN3CCCC3=O)CC2)n1`, the “% Inhibition” value turned out to be 6% and the Z score is recorded as -0.82.

Regarding `CCOc1ccc(C(=O)NC[C@@H](C(C)C)N(CC)CC)cc1`, the “% Inhibition” value is reported as -6% and the Z score is given as 1.13.

Consider `CCn1c(CCc2ccc(NC(=O)Nc3cc(Cl)c(OC)cc3OC)cc2)nc2ccccc21`, for which the “% Inhibition” value is given as -12% and the Z score amounted to 1.86.

In the case of `O=C(Nc1ccccn1)c1ccc2c(c1)OCCO2`, the “% Inhibition” value is recorded as -5% and the Z score is reported as 0.7.

As for `Cc1c(CNc2nnc(Cc3ccc(F)cc3)s2)cnn1C`, the “% Inhibition” value was -11% and the Z score is listed as 1.42.

In the case of `Cc1cc2[nH]c(=O)[nH]c2cc1-n1ccnc1-c1cc2n(n1)CCCNC2`, the “% Inhibition” value is listed as -6% and the Z score turned out to be 0.99.

For `O=C1CCc2cc(OS(=O)(=O)c3ccc4c(c3)OCCO4)ccc2N1`, the “% Inhibition” value was 30% and the Z score is recorded as -3.86.

`Cc1nnnn1CCc1ncnn1CCc1ccccc1`: the “% Inhibition” value was 3% and the Z score is listed as -0.47.

Take `O=C(NCc1noc(CCc2ccccc2)n1)c1ccccc1`: the “% Inhibition” value was -8% and the Z score is recorded as 1.16.

In the case of `CN(C(=O)[C@@H]1COc2ccccc2C1)C1CCS(=O)(=O)CC1`, the “% Inhibition” value was 0% and the Z score is given as -0.03.

For `O=C(O)CNC(=O)CN1Cc2cc(Cl)ccc2C[C@H]1c1ccccc1`, the “% Inhibition” value is listed as -6% and the Z score stood at 0.52.

Turning to `CCCc1nc(NC[C@H]2CCN(CCC)C2)no1`, the “% Inhibition” value is listed as -13% and the Z score turned out to be 1.17.

As for `Cc1ccc([C@H](C)NCC2(CS(C)(=O)=O)CC2)o1`, the “% Inhibition” value is recorded as -11% and the Z score came out at 1.5.

`O=C(C1CCCC1)N1CCN(c2ccc(-c3noc(C(F)(F)F)n3)cn2)CC1`: the “% Inhibition” value came to 20% and the Z score is given as -2.64.

In the case of `CC1CCN(C(=O)c2ccccc2N2CCC(NC(=O)c3ccc(F)cc3F)CC2)CC1`, the “% Inhibition” value was found to be 10% and the Z score is reported as -1.4.

In the case of `COCCN(Cc1ccc(C)o1)C[C@H](C)O`, the “% Inhibition” value was determined as 9% and the Z score is reported as -1.03.

Take `CCOCCO/C(=N/C(=O)c1ccc(C(F)(F)F)cc1)NCc1ccc2c(c1)OCO2`: the “% Inhibition” value was -11% and the Z score came to 0.93.

As for `O=C(CC1(N2Cc3ccccc3C2=O)CCCCC1)NCCCn1ccnc1`, the “% Inhibition” value is on record as -7% and the Z score came to 1.18.

Take `COCc1ncc(CN2CCC3(CCC(=O)N(Cc4ccccc4)C3)CC2)cn1`: the “% Inhibition” value was -4% and the Z score amounted to 0.79.

For the compound `CN(CC(N)=O)C(=O)CCc1ccc(Cl)s1`, the “% Inhibition” value is reported as -6% and the Z score was determined as 0.7.

As for `CCn1nnc2ccc(-c3noc(CCc4c[nH]c5ccccc45)n3)cc21`, the “% Inhibition” value is recorded as -9% and the Z score is recorded as 1.48.

For `Cc1ccc(S(=O)(=O)NCc2ccc3c(c2)N(C(=O)c2ccccc2)[C@@H](C)C3)c(C)c1`, the “% Inhibition” value worked out at 4% and the Z score is given as -0.67.

Regarding `Cc1cccnc1CNC(=O)N[C@@H](C)c1cnn(C)c1`, the “% Inhibition” value is -8% and the Z score amounted to 1.07.

In the case of `O=C(Nc1ccc(Cl)c(Cl)c1)N1CCN=C1c1cccc(Cl)c1`, the “% Inhibition” value is 5% and the Z score is reported as -0.65.

Turning to `Cc1cc(C)cc(CN2CCN(C(=O)CCCS(N)(=O)=O)CC2=O)c1`, the “% Inhibition” value was -1% and the Z score came out at 0.14.

On to `CCc1ccc2c(c1)C(=C1SC(C(=O)OC)=C(C(=O)OC)S1)C(=S)C(C)(C)N2`, for which the “% Inhibition” value is reported as -5% and the Z score amounted to 0.62.

Consider `Cc1noc(COCC(=O)N[C@H]2COc3c2ccc(C)c3C)n1`, for which the “% Inhibition” value is reported as -7% and the Z score came out at 1.09.

For `Cc1cc(CNC(=O)[C@]2(C)CC[C@H](C)C2(C)C)n(C)n1`, the “% Inhibition” value is on record as 5% and the Z score is -0.6.

As for `CC1(C)C[C@H](S(=O)(=O)N2CCN(c3nc[nH]n3)CC2)CO1`, the “% Inhibition” value is -1% and the Z score is 0.17.

With `CC(C)c1noc(CN(C)C[C@H]2CCCCO2)n1`, the “% Inhibition” value is reported as -11% and the Z score is listed as 2.01.

Regarding `Cc1c[nH]c(C(=O)N(C)Cc2ccc3c(c2)OCO3)n1`, the “% Inhibition” value was -5% and the Z score is recorded as 0.65.

Take `CC(C)(C)Oc1ccc(-c2noc(-c3cc(C(N)=O)cs3)n2)nc1`: the “% Inhibition” value is given as -9% and the Z score turned out to be 0.95.

As for `CCCCS(=O)(=O)N[C@H](c1ccccc1)C1CC1`, the “% Inhibition” value is -1% and the Z score is given as 0.09.

Consider `Cc1ccccc1C1(CNCc2c(C)noc2C)CC1`, for which the “% Inhibition” value is listed as -4% and the Z score is on record as 0.51.

As to `OCc1ccnc(-c2ccc(OCc3ccccc3)nc2)c1`, the “% Inhibition” value was -1% and the Z score is recorded as 0.18.

Consider `COCCOCC(=O)Nc1cccc(Cl)c1C`, for which the “% Inhibition” value was -12% and the Z score stood at 1.24.
